# PubChem BioAssay AID1745853 (National Center for Advancing Translational Sciences (NCATS), 2022)
# The other results are listed elsewhere or left out. These are further read-outs of the screen, such as a control signal, another cell line or another target. No call is given for them.
# Key:
# Assay in all cases: Primary Screen for Target Class Profiling of Small Molecule Inhibitors of Methyltransferases
# [1] = biological target: Glycine N-methyltransferase (Homo sapiens) (UniProt Q14749); conditions: purified enzyme, MTase-Glo SAH luminescence; measured here: GNMT inhibition; at 40 µM; stronger effect = lower value
# Summary of the method: (§1)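 Each enzyme was reacted with SAM and its substrate, with compounds tested once at 40 uM; SAH formed was read by MTase-Glo luminescence.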
# [2] = biological target: Guanidinoacetate N-methyltransferase (Homo sapiens) (UniProt Q14353); conditions: purified enzyme, MTase-Glo SAH luminescence; measured here: GAMT inhibition; at 40 µM; stronger effect = lower value
# Summary of the method: as §1
# [3] = biological target: Histamine N-methyltransferase (Homo sapiens) (UniProt P50135); conditions: purified enzyme, MTase-Glo SAH luminescence; measured here: HNMT inhibition; at 40 µM; stronger effect = lower value
# Summary of the method: as §1
# [4] = biological target: Nicotinamide N-methyltransferase (Homo sapiens) (UniProt P40261); conditions: purified enzyme, MTase-Glo SAH luminescence; measured here: NNMT inhibition; at 40 µM; stronger effect = lower value
# Summary of the method: as §1
# [5] = biological target: Phenylethanolamine N-methyltransferase (Homo sapiens) (UniProt P11086); conditions: purified enzyme, MTase-Glo SAH luminescence; measured here: PNMT inhibition; at 40 µM; stronger effect = lower value
# Summary of the method: as §1
# On the % scale 0 is the no-effect control and ±100 the full control effect.
SMILES,"activity change, negative = inhibition [1]","activity change, negative = inhibition [2]","activity change, negative = inhibition [3]","activity change, negative = inhibition [4]","activity change, negative = inhibition [5]"
O=C(c1ccc2ccccc2n1)N1CCc2nnc(CCc3ccccc3)n2CC1,-5.78%,-6.62%,-1.97%,-10.8%,-6.09%
Cc1ccc(C(=O)C(C)n2nc3n(C)c(=O)c4ccc(C(=O)NC5CCCC5)cc4n3c2=O)cc1C (stereo not given),1.75%,0%,-4.38%,0.315%,0.025%
CC1(C(=O)NCc2ccc(F)cc2)Cn2cnc(C(=O)NCCN3CCOCC3)c2C(=O)N1C1CC1 (stereo not given),3.42%,0%,5.12%,3.7%,4.54%
COc1ccc(CNC(=O)CCn2ccc3cc(S(=O)(=O)N4CCCC4)ccc32)cc1,-1.87%,3.87%,0.863%,-4.52%,-0.898%
COc1cc(OC)cc(C(=O)N2CCC(c3nc(C4CCOC4)no3)CC2)c1 (stereo not given),-3.73%,-3.19%,-0.986%,-4.21%,-0.152%
Cc1ccc(C(=O)CSc2nnc3n(C)c(=O)c4ccc(C(=O)NC5CCCC5)cc4n23)c(C)c1,-0.676%,2.84%,4.56%,-1.25%,-3.23%
CCCC(C(=O)OCCN(CC)CC)(c1ccccc1)c1ccccc1,2.9%,12.8%,4.39%,-7.39%,9.05%
CCCn1c(=O)c2ccccc2n2c(=O)n(Cc3ccccc3F)nc12,-0.433%,4.23%,6.87%,-14.2%,1.71%
O=C(Cn1c(=O)oc2cc(S(=O)(=O)N3CCCC3)ccc21)NC1CCCc2ccccc21 (stereo not given),2.33%,1.99%,8.98%,-5.06%,-9.24%
CCc1ccc(CNC(=O)c2cc3n(n2)CC(C)(C(=O)NC2CCCCCC2)N(C)C3=O)cc1 (stereo not given),2.04%,1.22%,-2.75%,3.78%,-5.17%
COc1ccccc1CNC(=O)C1(C)Cn2c(cc3ccccc32)C(=O)N1Cc1ccc(OC(C)C)cc1 (stereo not given),6.98%,0.132%,6.41%,4.58%,0.284%
COc1ccc(OC)c(CNC(=O)c2ncn3c2C(=O)N(C2CC2)C(C)(C(=O)NC2CCCC2)C3)c1 (stereo not given),-11%,-2.5%,-10.6%,-15.8%,-12.5%
COc1cc([C@@H]2Oc3c(OC)cc(CCCO)cc3[C@@H]2CO[C@@H]2O[C@H](CO)[C@@H](O)[C@H](O)[C@H]2O)ccc1O,-1.09%,2.41%,2.86%,-9.17%,-0.831%
COc1ccc(C)c2c1N[C@@H](c1ccc(Br)cc1)[C@H]1CC=C[C@@H]21,-20.4%,-2.63%,-15.7%,-9.68%,-18.2%
CCCn1c(=O)c2ccc(C(=O)NC(C)CC)cc2n2c(=O)n(CC(=O)NC(C)C)nc12 (stereo not given),-0.446%,2.03%,3.1%,-2.06%,-4.43%
CCOc1ccccc1CN1C(=O)c2cc3ccccc3n2CC1(C)C(=O)NCCC(C)C (stereo not given),0.806%,0%,0.752%,-1.81%,-5.44%
Clc1ccc2c(c1)C1C=CCC1C(c1cccc(Br)c1)N2 (stereo not given),-5.31%,-0.806%,-1.35%,-8.8%,-3.16%
Cc1cccc(CN2CCc3nnc([C@@H]4C[C@@H](O)CN4C)n3CC2)c1,-6.68%,-9.69%,-4.18%,-14%,-12.7%
CC(C)CC(N)c1nnc2n1CCNCC2 (stereo not given),-3.57%,-7.29%,-2.46%,-10.5%,-11.3%
NC(=O)CN1CCC(c2nc(-c3cn4ccccc4n3)no2)CC1,-1.37%,-2.95%,0.075%,-7.44%,-3%
COc1ccc(-c2nnc3n(Cc4ccc(F)cc4)c(=O)c4ccccc4n23)cc1,-3.31%,0.513%,2.36%,1.64%,1.81%
CC1(C(=O)NC2CCCCCCC2)Cn2c(ccc2-c2ccccc2)C(=O)N1CCC1=CCCCC1 (stereo not given),-1.87%,0.472%,2.37%,-1.04%,-1.16%
COC1CCC12CCN(C(=O)c1ccc(C)s1)CC2 (stereo not given),-3.84%,-8.89%,-1.29%,-12.5%,-12.6%
C/C=C/C=C/C=C/C(=O)OC1C=C2C(O)OC(=O)[C@]2(O)[C@@]2(C)CCCC(C)(C)[C@H]12 (stereo not given in full),-11.3%,1.06%,3.07%,-13.1%,-3.89%
Fc1cccc2c1NC(c1ccc(Cl)cc1)C1CC=CC21 (stereo not given),-7.33%,4.68%,-1.52%,-4.81%,-3.71%
COc1cccc(NC(=O)CSc2nnc3n(C)c(=O)c4ccc(C(=O)NC5CCCC5)cc4n23)c1,-2.78%,0%,7.86%,7.68%,6.02%
COc1cccc(-c2ccc3c(n2)CNC(=O)CO3)c1,-11.2%,-6.66%,-7.09%,-13.5%,-8.89%
COc1cc(CC(=O)O)ccc1O,-12.2%,-0.107%,-2.99%,-10.5%,0.838%
Cc1ccc(NS(=O)(=O)c2cc3[nH]c(=O)[nH]c3cc2C)c(C)c1,-5.55%,0.956%,-1.17%,-7.78%,-14.2%
Cc1cc(Cl)ccc1N1C(=O)c2cc(C(C)(C)C)nn2CC1(C)C(=O)NCc1ccccc1 (stereo not given),7.55%,0.03%,7.91%,8.77%,2.64%
